# The campaign covered roughly 310,000 compounds. About 2,200 (0.71%) showed an effect of 50% or more. The effect is printed as a negative number. The list shows a part of the results.
# Target: human ether-à-go-go-related gene (hERG) potassium channel (human, UniProt Q12809)
# Assay: primary screen, population patch clamp on CHO cells stably expressing hERG
# human ether-à-go-go-related gene (hERG) potassium channel, sequence (Q12809 whole entry, looked up): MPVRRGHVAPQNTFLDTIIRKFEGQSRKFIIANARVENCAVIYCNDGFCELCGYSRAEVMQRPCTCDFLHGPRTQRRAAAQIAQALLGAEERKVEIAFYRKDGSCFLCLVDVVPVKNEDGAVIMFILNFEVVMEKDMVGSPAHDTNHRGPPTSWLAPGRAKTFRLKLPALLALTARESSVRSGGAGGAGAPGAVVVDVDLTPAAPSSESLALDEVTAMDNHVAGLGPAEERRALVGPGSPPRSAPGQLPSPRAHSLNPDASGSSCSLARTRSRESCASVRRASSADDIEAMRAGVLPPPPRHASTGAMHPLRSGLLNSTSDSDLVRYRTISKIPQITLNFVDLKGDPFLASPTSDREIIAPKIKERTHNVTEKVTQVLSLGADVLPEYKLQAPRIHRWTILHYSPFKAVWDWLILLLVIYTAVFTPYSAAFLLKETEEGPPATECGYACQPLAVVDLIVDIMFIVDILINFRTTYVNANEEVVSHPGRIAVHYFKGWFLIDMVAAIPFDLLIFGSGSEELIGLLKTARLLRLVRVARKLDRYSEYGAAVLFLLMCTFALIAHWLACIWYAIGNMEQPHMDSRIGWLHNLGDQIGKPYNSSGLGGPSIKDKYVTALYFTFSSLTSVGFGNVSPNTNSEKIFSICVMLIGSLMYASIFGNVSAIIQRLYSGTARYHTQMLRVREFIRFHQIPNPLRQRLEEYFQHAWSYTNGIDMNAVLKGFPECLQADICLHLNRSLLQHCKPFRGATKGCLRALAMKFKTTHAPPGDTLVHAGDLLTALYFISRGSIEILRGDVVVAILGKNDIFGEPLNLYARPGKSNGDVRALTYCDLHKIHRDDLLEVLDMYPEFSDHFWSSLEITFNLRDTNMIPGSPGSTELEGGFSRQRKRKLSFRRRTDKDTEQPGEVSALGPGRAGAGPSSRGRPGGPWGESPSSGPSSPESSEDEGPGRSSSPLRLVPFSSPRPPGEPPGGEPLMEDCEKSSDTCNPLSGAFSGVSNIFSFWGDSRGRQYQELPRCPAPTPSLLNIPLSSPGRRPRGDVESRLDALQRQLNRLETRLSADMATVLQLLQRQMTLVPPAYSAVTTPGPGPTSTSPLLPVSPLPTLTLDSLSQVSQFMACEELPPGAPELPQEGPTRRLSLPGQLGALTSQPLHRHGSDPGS
row,Structure (SMILES),"hERG current change (%, negative = inhibition) at 1uM [%]"
1,O=c1oc2cc(O)ccc2c2ccccc12,12.6
2,COc1ccccc1NS(=O)(=O)c1cc(NC(=O)c2ccncc2)ccc1N1CCOCC1,6.08
3,CCOC(=O)c1c(NC(=O)Cc2ccccc2)sc2c1CCN(CC)C2.Cl,-18.3
4,CCCCN(C)CCNC(=O)Cn1c(=O)sc2ccccc21,9.2
5,O=C(NCc1ccncc1)C(=O)N/N=C/c1cccnc1,17.3
6,O=C1c2oc3ccc(Cl)cc3c(=O)c2C(c2ccco2)N1CCN1CCOCC1 (centres unmarked),10.3
7,CC(=O)OCC(=O)[C@@]1(O)CC[C@H]2[C@@H]3CCC4=CC(=O)CC[C@]4(C)[C@H]3C(=O)C[C@@]21C,2.45
8,O=C(Cn1ccc([N+](=O)[O-])n1)Nc1nc2ccccc2s1,-11.3
9,CC(C)c1nc(SCC(=O)c2ccc(F)cc2)c2ccccc2n1,12.4
10,Br.CCCc1cc(-c2nc(-c3ccc(Cl)cc3)cs2)ccn1,4
11,O=C(O)CCc1ncc(C(F)(F)F)cc1Cl,14.3
12,COC(=O)c1cc(-c2ccccc2)n[nH]1,10.5
13,Cl.NC(N)=NC(N)=Nc1ccc(SC(F)(F)F)cc1,9.66
14,Cc1cccc(N/C(N)=N/c2nc(C)cc(=O)[nH]2)c1,15.1
15,COc1ccc(-c2cnc(N)nc2-c2ccc(OCc3ccccc3)cc2O)cc1,8.07
16,Cc1ccccc1NC(=O)CCCNC(=O)c1ccc(Cl)cc1,12.6
17,COc1ccccc1OCC(=O)Nc1ccc(N2CCCCC2)cc1,-6.82
18,O=C(NCc1ccccc1Cl)C1CCC(=O)N1Cc1ccc(F)cc1 (centres unmarked),17.4
19,O=C(c1ccc([N+](=O)[O-])cc1)N1CCN(c2ncc(Br)cn2)CC1,-11.3
20,Cc1ccc(-n2ncc3c2CC(C)(C)CC3NC(=O)CN2CCCC2=O)cc1 (centres unmarked),5
21,CCOC(=O)CC(=O)CSc1nc2nc(C)cc(C)n2n1,7.68
22,O=C1C(C2=NC(C(=O)O)C3C(=O)N(c4ccc(Cl)cc4)C(=O)C23)=C(O)c2ccccc21 (centres unmarked),0.931

row,Structure (SMILES),"hERG current change (%, negative = inhibition) at 1uM [%]"
1,Cc1ccc(N2CC(C(=O)OCC(=O)C(C)(C)C)CC2=O)cc1C (centres unmarked),2.59
2,CCNC(=S)N/N=C(\C)c1ccc2ccccc2c1OC(F)F,-3.11
3,Cc1ccc(C(=O)NCc2ccco2)cc1[N+](=O)[O-],0.904
4,CSCCC(NS(=O)(=O)c1cccc(C(F)(F)F)c1)C(=O)N(C)CCOc1ccc(Cl)cc1 (centres unmarked),14.2
5,C[C@H]1CC[C@]2(O[C@@H](CCO)C[C@@H](O)[C@@H]2O)O1,11.1
6,Cc1ccc(-c2nn(C)c(=O)c3ccccc23)cc1CNC(=O)c1ccco1,2.32
7,COC(=O)Nc1nc2ccc(-c3n[nH]c(=O)c4ccccc34)cc2[nH]1,1.25
8,O=C1c2ccccc2S(=O)(=O)c2cc(N3CCC(C(=O)N4CCCCC4)CC3)ccc21,15.8
9,COc1cccc2c1OCC(CN1CCN(Cc3ccccc3)C(CCO)C1)=C2 (centres unmarked),-4.17
10,COc1cc(/C=N/Nc2nc(Nc3ccc(C)cc3)nc(-n3nc(C)cc3C)n2)cc(OC)c1OC,6.26
11,CCc1nc(N2CCCCC2)c2oc3ccccc3c2n1.Cl,18.3
12,Fc1ccc(-c2nc3n(n2)Cc2ccccc2-3)cc1,9.62
13,O=C(Nc1ccc(F)cc1)c1ccc2[nH]c(=O)c(=O)[nH]c2c1,14
14,Cc1ccc(S(=O)(=O)N2CCCCC2)cc1NC(=O)CCN1C(=O)C2CC=CCC2C1=O (centres unmarked),2.31
15,COc1ccc(NS(=O)(=O)c2cc(NC(=O)C3CC3)ccc2N2CCOCC2)cc1,-1.57
16,Cc1cc(C)cc(OCC(=O)N/N=C\c2cn(C)nc2C)c1,4.73
17,COc1ccccc1CNC(=O)c1ccccc1OCc1ccc(F)cc1,11.5
18,CCN(CC)CCN1C2=C(C(=O)CC(C)(C)C2)C(c2cccc(F)c2)C2=C1CC(C)(C)CC2=O,12.2
19,CCOc1ccccc1NC(=O)C(CC(C)C)NC(=O)C1CCCCC1 (centres unmarked),-13.4
20,CN(C)CC(=O)Nc1nc(-c2ccccc2)cs1,4.14
21,CC#CCC(CC#CC)c1nc2ccccc2c(=O)n1N,11.6
22,COc1ccc(-n2ncc3c2CC(C)(C)CC3NC(=O)c2ccc(OC)o2)cc1 (centres unmarked),-9.03

# From article PMC4336329 (PLoS ONE, 2015)
